From ChEMBL document CHEMBL4888484, “Replenishing the malaria drug discovery pipeline: Screening and hit evaluation of the MMV Hit Generation Library 1 (HGL1) against asexual blood stage Plasmodium falciparum ,using a nano luciferase reporter read-out” (2022)
Among all 150,000 compounds or so, about 540 (0.36%) showed an effect of 50% or more. Some of the results follow.

The compounds below were run on Plasmodium falciparum (assay: Primary screen in NF54 nanoGlo assay, in single point, at 2uM, 72h; a lower Z score goes with more inhibition). Settings: timepoint 72 hour.
Type: functional, Erythrocyte

Row | SMILES | % Inhibition [%] | Z score
1 | CCn1c(=O)cc(C)c2ccc(OCC(=O)Nc3ccccc3)cc21 | -3 | 0.52
2 | CC(C)N(CC(C)(C)O)C(=O)Nc1ccc(C(N)=O)c(Cl)c1 | 40 | -5.83
3 | Cc1cccc2c1c(-c1ccc(C(=O)N3CCC[C@H](C#N)C3)cc1)nn2C | -12 | 1.91
4 | Cc1ccc(S(=O)(=O)CC(=O)Nc2nnc(-c3ccccc3)o2)cc1 | -16 | 3.1
5 | O=C(Cc1cnn(-c2ccccc2)c1)N1CCN(c2ccccn2)CC1 | -3 | 0.58
6 | O=S(=O)(NCC1(c2cccs2)CC1)C1CC1 | -13 | 1.92
7 | O=C(c1ccon1)N1CCN(c2ncnc3[nH]ccc23)C[C@@H](O)C1 | -7 | 1.13
8 | CC12CN(S(=O)(=O)c3ccc4c(c3)OCCO4)C3(C(=O)OCc4ccccc4)CC1CCC23C (configuration not stated) | 70 | -8.79
9 | COC(=O)c1[nH]c2cc(OC)ccc2c1-n1cnnn1 | 7 | -0.72
10 | O=C1Nc2ccccc2C12OCC1(CO2)CC2C=CC1C2 (configuration not stated) | 6 | -0.87
11 | CN1CCN(C(=O)c2cccc(O)c2)C[C@@]12CCC(=O)N(CC1CC1)CC2 | 10 | -1.32
12 | CCOC(=O)[C@H]1CCCN(Cc2cc(C)ns2)C1 | -5 | 0.59
13 | COCCN1CCN(Cc2cnn(-c3ccccc3)n2)CC1 | -4 | 0.6
14 | CC(C)[C@@H]1CN(CCn2ccnc2)CCCN1Cc1ccc(F)cc1 | -7 | 0.85
15 | C=CCC(CC=C)C(=O)NC1CN(C(C)C)C1 | 28 | -3.17
16 | O=C(Cn1cnnn1)N1CCC(Cc2cc(Cl)ccc2Cl)CC1 | -15 | 2.29
17 | COCc1cccc(Nc2ccnc(C#N)c2)c1 | -12 | 2.08
18 | COc1ccc(Cl)cc1S(=O)(=O)N(C)[C@H]1CS(=O)(=O)C[C@@H]1O | -10 | 1.3
19 | CCCCN(Cc1ccccc1)C(=O)c1cncn1-c1ccc(-c2cc3ccccc3o2)cc1 | -13 | 1.17
20 | COC(=O)[C@](C)(N)c1ccc(Cl)c(Cl)c1 | -17 | 2.17
21 | CC(=O)Nc1ccc(-c2cccnc2O)cc1 | -14 | 1.32
22 | CCN1C[C@H](CN(C)C(=O)NCCc2ccc(OC)c(OC)c2)Oc2ccccc21 | -41 | 4.79

Row | SMILES | % Inhibition [%] | Z score
23 | C=CCN([C@@H](C)C(=O)O)S(=O)(=O)c1ccc(C)cc1 | -2 | 0.26
24 | Cc1ncc(CN2CCC(NC(=O)c3cscn3)C(C)C2)s1 (configuration not stated) | -3 | 0.5
25 | CCn1cc(CN2CCN(c3ccc(OC)cc3)C(C)(C)C2)cc1C#N | -4 | 0.44
26 | CC(C)(C)CCN1C(=O)C2(CCN(C(=O)C(C)(C)C)CC2)Nc2ccccc21 | -15 | 1.94
27 | O=C(NCC1(c2ccccc2)CC1)N1CCC1 | -9 | 1.86
28 | CN(CCc1ccccn1)c1ncccc1CNc1ccnc(N)n1 | -9 | 0.96
29 | Cc1ccc(C)c(OCc2cc(C(=O)N3CCC[C@]4(CCCN(C)C4)C3)no2)c1 | -2 | 0.15
30 | Cc1ccsc1CN(C)C1CC(=O)N(C(C)c2cccnc2)C1=O (configuration not stated) | -14 | 2
31 | COCCOc1ncccc1-c1noc([C@@H]2CCCN2C(C)C)n1 | 2 | -0.2
32 | O=C(NC1Cc2ccccc2C1)N1CCC[C@@H]1CN1CCCC1 | -16 | 1.86
33 | COc1ccccc1C(=O)Nc1ccc(OC(=O)Cc2ccccc2Cl)cc1 | 3 | -0.31
34 | Cc1csc(NC(=O)CN2C(c3ccccc3)=C[C@@H](c3ccc(Cl)cc3)n3nnnc32)n1 | -4 | 0.65
35 | COc1cc2c(cc1CN1CCN(c3ccnc(N)n3)CC1)OCCCO2 | -3 | 0.31
36 | CC[C@H](NC(=O)c1ccnnc1C)c1cnn(CC)c1 | -10 | 1.57
37 | CC(NC1(C)CCS(=O)(=O)C1)C(=O)Nc1ccc(N2CCCCC2)cc1 (configuration not stated) | -8 | 1.06
38 | CC(=O)N[C@H]1CCN(Cc2coc(C(C)C)n2)C1 | -4 | 0.78
39 | CCCN(Cc1ccncc1)c1cc([C@H]2CCOC2)nc(C)n1 | -8 | 1.78
40 | Cc1ccccc1NC(=O)c1nnc(C2CCN(C(=O)C3CCCC3)CC2)s1 | -15 | 1.37
41 | CCCN1C(=O)OC(c2ccc(OC)cc2)C1(O)c1ccc(OC)cc1 (configuration not stated) | 33 | -3.7
42 | Cc1c(C(=O)Nc2ccccc2F)cccc1N(C)S(C)(=O)=O | -7 | 1
43 | CCCNS(=O)(=O)c1ccc(-c2cc(C)no2)o1 | -6 | 1.21
44 | CNC(=O)NC(=O)CN(CC1CCC1)CC(F)(F)F | -15 | 1.54

Row | SMILES | % Inhibition [%] | Z score
45 | CC(C)c1ncc(CN(C)C(=O)c2onc3c2CCCC3)cn1 | 3 | -0.39
46 | Cc1cc(C)c(C#N)c(N2CCn3nc(CNC(=O)C4CCC4)cc3C2)n1 | -11 | 1.46
47 | CC[C@H](C)N(C/C=C/c1ccco1)Cc1cccnc1 | 3 | -0.38
48 | COc1ccc(NC(=O)N2CCC[C@H]2c2cccs2)nn1 | 34 | -3.86
49 | O=C(CN1CCN(Cc2ccc(F)cc2Cl)C1=O)NC1CCCCCCC1 | 5 | -0.87
50 | Cc1ccc2nnc(CNS(=O)(=O)c3cccc4c3OCC4)n2c1 | 7 | -0.83
51 | C#CCCC1(CCC(=O)N2CCC[C@H](c3nnco3)C2)N=N1 | 8 | -0.95
52 | OC1(C(F)(F)F)CCN(Cc2ccc3c(c2)CCO3)CC1 | -8 | 1.09
53 | O=C(NCc1ccco1)c1cn2c3c(cccc3c1=O)CCC2 | -11 | 1.65
54 | CCC[C@H](C)NC(=O)c1cccnc1O | 1 | -0.17
55 | Cc1cccc(OCC(=O)N2CCN(c3ccc(=O)n(-c4cccc(Cl)c4)n3)CC2)c1 | 16 | -1.85
56 | C[C@]1(C(=O)Nc2ccc(N3CCOCC3)cc2)CC1(Cl)Cl | -4 | 0.74
57 | c1ccc(C2(c3n[nH]c(C4CCC4)n3)CC2)cc1 | -7 | 0.66
58 | O=C(N[C@H]1CC[C@H](Oc2ccccn2)CC1)c1cnccn1 | -7 | 0.74
59 | COc1ccc(C(=O)N2CCC(C)C3CCCCC32)cc1S(=O)(=O)NC1CCCC1 (configuration not stated) | -8 | 1.26
60 | COc1ccccc1C(=O)Nc1ccc(OCc2nc(-c3ccccc3)oc2C)cc1 | -8 | 1.59
61 | Cc1cccc(-c2cc(C(=O)N3CCCC3)ccn2)c1C | -14 | 1.83
62 | C=CCOC[C@@H](O)CN(CCOC)Cc1c(-c2ccccc2)noc1N1CCCCC1 | -5 | 0.57
63 | CCc1nnc(CNC(=O)c2ccc(-c3ccc(C(=O)N(C)C)o3)cc2)s1 | 4 | -0.62
64 | COCCC(=O)N1C[C@H](c2ccc(C)cc2)[C@@H](N(C)C)C1 | -13 | 1.25
65 | Cc1ncc(-c2ccc(C)c(S(=O)(=O)NCc3csc(C)n3)c2)o1 | 0 | -0.03
66 | CS(=O)(=O)N1CCN(C(=O)CCOc2cccc(F)c2)CC1 | -10 | 0.89

Row | SMILES | % Inhibition [%] | Z score
67 | CC(C(=O)O)C(=O)N1CCCCC1CCCc1ccccc1 (configuration not stated) | -4 | 0.48
68 | c1ccc(Cc2nnc3n2CCN(Cc2ccnn2C2CCC2)C3)cc1 | -7 | 0.92
69 | O=S(=O)(c1cccc(C(F)(F)F)c1)N1CCc2cc(-c3ccncc3)ccc21 | -2 | 0.3
70 | Cc1ccc(N(C)S(=O)(=O)c2c(-c3cccc(F)c3)csc2C(=O)n2nc(C)cc2C)cc1 | -15 | 1.52
71 | CC(=O)N1N=C(COc2ccc(Cl)cc2C)O[C@@]1(C)c1ccc(Cl)c(Cl)c1 | 1 | -0.13
72 | Cc1cc(NS(=O)(=O)c2ccc(OC(C)C)nc2)c[nH]c1=O | -18 | 1.54
73 | O=C(CN1C(=O)COc2ccc(Cl)cc21)Nc1nnc[nH]1 | -18 | 2.41
74 | CCn1cc(-c2n[nH]cc2C(=O)N2CCN(CC(C)C)C(=O)C2)cn1 | 3 | -0.32
75 | O=C(N[C@H]1CCCCNC1=O)c1cccs1 | -1 | 0.17
76 | Fc1ccc(COc2cccc(NCc3noc(Cc4ccccc4)n3)c2)cc1 | -11 | 2.14
77 | CC(C)(C)OC(=O)N[C@H]1CCCN(CCF)C1 | 30 | -3.36
78 | Cc1n[nH]cc1CN[C@H]1CCCCc2cc(Br)ccc21 | -11 | 1.07
79 | Cn1ncnc1[C@]1(c2ccccc2F)CC1(C)C | 5 | -1.04
80 | CS(=O)(=O)N1CCC[C@@H]1CNc1ncc(Br)cn1 | 2 | -0.19
81 | Cc1ccc(NC(=O)C2C(C)Nc3ncnn3C2c2cccnc2)c(C)c1 (configuration not stated) | -2 | 0.37
82 | Cc1cccn2c(=O)c(C(=O)NCc3ccc(Cl)cc3)c(O)nc12 | -6 | 0.77
83 | CCOc1ncccc1-c1ccc(OC(C)C)nn1 | -7 | 1.24
84 | CC(=O)Nc1c(C)noc1/C=C\c1ccc(C)c(S(=O)(=O)N2CCOCC2)c1 | -2 | 0.36
85 | CNCC(=O)Nc1ccccc1C(F)(F)F | 32 | -4.34
86 | CC1CC(NC(=O)[C@@H]2CCO[C@H]2c2ccc(Cl)c(F)c2)=NO1 (some centres not stated) | -13 | 1.3
